Among all 410,000 compounds or so, about 5,000 (1.2%) were called active. Inconclusive results, whose numbers are uncertain, are shown with a selection of clear calls. Calls follow the shape of the dose curve; as a rule, active = well fitted inhibition curve with a large enough effect; inconclusive = small, poorly fitted or top-dose-only effect; inactive = no such curve, though single readings can be large or run the other way. Potencies beside an inconclusive call are fits to weak or partial responses and may not hold up.
test: qHTS for Inhibitors of TGF-b; conditions: HepG2 CAGA-GFP TGF-b/SMAD3 reporter, GFP fluorescence, 18 h, TGF-beta stimulated, 500 pg/mL final; series mostly up to 46.1 µM; activity, negative = inhibition: at the top concentration; also: nearly all actives have a fitted effect of over 65% in size
From the text: TGF-b is a main component in the TGF-b signaling pathway which plays diverse roles in cellular and development pathways. TGF-b is the mediated by the transcription factors Smads. Although the Smad-dependent pathway is the primary canonical TGF-b signaling node, TGF-b1 can also activate alternative signaling pathways, including those involving MAPK (ERK, JNK and p38). This interaction may mediate or enhance Smad-dependent responses, or can exert Smad-independent effects. The complexity of this signaling cascade allows the TGF-b superfamily to perform unique, overlapping or redundant functions. We believe that targeting the TGF-beta pathway at the Smad-transcription factor level may eliminate the consequences of disrupting the entire pathway and offer specificity without affecting other signaling pathways. Smad3 is the primary transducer of TGF-b's signals and Smad3 regulates many functions attributed to TGF-b signaling. We hypothesize that Smad3 inhibitors will selectively eliminate Smad3-specific TGF-beta signals without undesired off-target effects. We aim to identify Smad3-small molecule antagonists using a quantitative high throughput screening (qHTS) approach.
A high-throughput assay was developed to screen the NIH Molecular Libraries Small Molecule Repository (MLSMR). This is a cell based assay, where TGF-b is tagged with GFP. A counterscreen is run that looks at cytotoxicity (please see summary AID).
MH087449NIH Chemical Genomics Center [NCGC]
NIH Molecular Libraries Probe Centers Network [MLPCN]
Assay Submitter (PI): Sushil Rane, National Institute of […]
Suspensions of trypsinized HEPG2 CAGA-GFP cells were dispensed into white, tissue culture-treated, solid 1536-well plates at 5uL/well (1000 cells/well final concentration) in DMEM medium supplemented with 1% FBS. Plates were incubated at 37 degrees C for 2 hours, after which 23 nL of compounds or DMSO were delivered to each well using a pin tool. One uL of recombinant TGF-beta in DMEM (1% FBS) was then dispensed (500 pg/mL final concentration), and plates were incubated at 37 degrees C for 18 hours. The plates were measured on an Acumen eX3 Explorer plate reader for GFP fluorescence (ex488/em500-530). GFP values were calculated by determining the mean GFP fluorescence of individual cells, and compiling these values for each well to determine a total well GFP signal. The %Activity was determined from the corrected fluorescence values. A titration of the known TGF-B inhibitor SB431542 was included to monitor plate performance, while unstimulated HEPG2 (-TGF-B) control wells were used to normalize %Activity of identified inhibitors; unstimulated wells corresponded to 100%Activity (full inhibition), while stimulated cell controls (+DMSO) were used to normalize 0%Activity (no inhibition).
Concentration-response curves were fitted to the signals arising from the resulting fluorescence. The concentration-effect curves were then classified based on curve quality (r2), response magnitude and degree of measured activity, and compounds were subsequently categorized based on their curve class.
Potency is read from the fitted curve at half-maximal effect; tags tell the direction and shape of the fitted curve.

| Structure (SMILES) | Potency | activity, negative = inhibition |
| --- | --- | --- |
| COc1ccc(C(=O)/C=C/c2cccc(OCc3ccccc3)c2)cc1CSCC(=O)O | inconclusive: 15.8 µM [inhibitor, single point] |  |
| COc1ccccc1C(NC(=O)C1CCN(CCOc2ccc(Cl)cc2Cl)CC1)c1ccccn1 (configuration not stated) | inconclusive: 22.4 µM [inhibitor, single point] |  |
| COc1ccc(CC(=O)NCC(=O)N/N=C/c2sccc2C)cc1 | inconclusive: 0.112 µM [inhibitor, full curve, poor fit] |  |
| CC1(C)Cc2nc3oc4c(N5CCOCC5)ncnc4c3cc2CO1 |  | inactive: 0.423% |
| CCN(CC(=O)Nc1c(F)cccc1F)C(=O)c1ccc(C#N)cc1 |  | inactive: 3.69% |
| c1ccc(CN2CCc3[nH]c4ccccc4c3C2)cc1 | inconclusive: 15.8 µM [inhibitor, single point] |  |
| Cc1ccc(C2(CCNCc3ccc(N(C)C)cc3)CCOC(C(C)C)C2)cc1 (configuration not stated) | inconclusive: 35.5 µM [inhibitor, single point] |  |
| COc1cc2ncnc(Nc3cccc(Cl)c3)c2cc1OC | inconclusive: 10 µM [inhibitor, partial curve, poor fit] |  |
| Nc1ccn(CC(=O)NCCc2ccccn2)c(=O)n1 | inconclusive: 6.31 µM [inhibitor, single point] |  |
| COc1ccc(C(NC(=O)C2CCN(CCOc3ccccc3)CC2)c2ccccn2)cc1 (configuration not stated) |  | inactive: 1.38% |
| Oc1ccc(Cl)cc1C1C=C(c2ccc3c(c2)OCO3)NC(c2c(F)cccc2Cl)N1 (configuration not stated) | inconclusive: 15.8 µM [inhibitor, single point] |  |
| CCCCNc1nnc(SCC(=O)N2CCN(S(=O)(=O)c3ccc4ccccc4c3)CC2)s1 |  | inactive: -22.9% |
| O=C(Nc1ccccc1C(=O)OCc1cc(=O)n2c3c(sc2n1)CCCC3)c1ccccc1 | inconclusive: 7.94 µM [inhibitor, partial curve, poor fit] |  |
| O=C(CCS(=O)(=O)c1ccccc1)N(Cc1cccnc1)c1nc2c(Cl)cccc2s1 | active: 3.98 µM |  |
| O=C(NCCCN1CCN(c2ccc(F)cc2)CC1)C1COc2ccccc2C1 (configuration not stated) | inconclusive: 11.2 µM [inhibitor, single point] |  |
| CCc1ccc(NC(=O)c2ccc3c(=O)n4nc(Nc5ccccc5C)sc4nc3c2)cc1 | inconclusive: 3.16 µM [inhibitor, single point] |  |
| Cc1ccc(OCCCCCCN2CCNCC2)c(Br)c1 | inconclusive: 17.8 µM [inhibitor, single point] |  |
| CC1=NN(c2ccccc2)C(=O)/C1=C\c1cn(C)c2ccccc12 | inconclusive: 22.4 µM [inhibitor, single point] |  |
| COc1ccc2[nH]c(C)c(CCN(Cc3cccs3)C(=S)Nc3ccc(F)cc3)c2c1 | inconclusive: 22.4 µM [inhibitor, single point] |  |
| CCCCCCOC1(c2ccccc2)OC(=O)c2ccccc21 (configuration not stated) | inconclusive: 35.5 µM [inhibitor, single point] |  |
| COc1ccc2[nH]c3c(c2c1)CCN1C(=O)C(CC(=O)NC(C)(C)C)C[C@H](C(=O)N2CCOCC2)[C@@]31CCC1CCCC1 (some centres not stated) | inconclusive: 31.6 µM [inhibitor, partial curve, poor fit] |  |
| Cc1c(Cl)cccc1NC(=O)c1ccc2c(c1)nnn2C1CCCC1 |  | inactive: -20.8% |
| CCOC(=O)c1c(C)oc2nc(C)nc(N(CC(C)C)CC(C)C)c12 | inconclusive: 25.1 µM [inhibitor, single point] |  |

| Structure (SMILES) | Potency | activity, negative = inhibition |
| --- | --- | --- |
| CCOn1c(=O)c(-c2cccc3ccccc23)[n+]([O-])c2ccccc21 |  | inactive: -1.32% |
| CCC1(c2ccccc2)NC(=O)N(Cc2cccc([N+](=O)[O-])c2)C1=O (configuration not stated) |  | inactive: -15.5% |
| CCN1CNC(=S)N(c2ccccc2C)C1 |  | inactive: -3.99% |
| Cc1ccc(CCN=c2c([N+](=O)[O-])nn(-c3ccccc3)n2O)cc1 | inconclusive: 7.94 µM [inhibitor, partial curve, poor fit] |  |
| O=C(c1c(Cl)cccc1Cl)N1CCN(c2cccc3[nH]ccc23)CC1 | inconclusive: 35.5 µM [inhibitor, single point] |  |
| CCNC(=S)N(CCc1c(C)[nH]c2ccc(C)cc12)Cc1cc(OC)c(OC)c(OC)c1 |  | inactive: 0.266% |
| COc1ccc(N(CC(=O)Nc2c(C)n(C)n(-c3ccccc3)c2=O)S(=O)(=O)c2ccc(F)cc2)cc1 | inconclusive: 35.5 µM [inhibitor, single point] |  |
| O=C1C(Cl)=C(NS(=O)(=O)c2ccc([N+](=O)[O-])cc2)C(=O)c2ccccc21 | inconclusive: 35.5 µM [inhibitor, single point] |  |
| CCN1CCN(C(c2ccc(C(F)(F)F)cc2)c2ccc3cccnc3c2O)CC1 (configuration not stated) | inconclusive: 11.2 µM [inhibitor, partial curve] |  |
| O=C(CCS(=O)(=O)c1ccc(F)cc1)Nc1nc(-c2ccncc2)cs1 | inconclusive: 12.6 µM [inhibitor, single point] |  |
| CCc1cc2c(=O)[nH]c(-c3ccccn3)nc2s1 | active: 5.01 µM |  |
| CCN(C(=O)c1c(C)cc(=O)oc1C)c1ccc2c(c1)OCO2 |  | inactive: 0% |
| CCOC(=O)c1ccc(NC(=O)c2nc[nH]c2C(=O)NCCCCCNC(=O)OC(C)(C)C)cc1 |  | inactive: 4.43% |
| CC(C)(C)c1cc(CN2CCOCC2)c(C(=O)O)o1 |  | inactive: 8.04% |
| Cc1ccc(Cl)cc1NC(=O)c1sc2nc(-c3ccccc3)cn2c1C |  | inactive: 6.05% |
| Cc1cc(C)cc(NC(=O)CCCCCN2C(=O)[C@@H]3Cc4ccccc4CN3C2=O)c1 | inconclusive: 5.01 µM [inhibitor, partial curve, poor fit] |  |
| COc1cc(/C=C(\C#N)C(=O)NCCc2ccccc2)cc(OC)c1O |  | inactive: 29.9% |
| COc1ccc(CNC(=O)c2cnn3c(C(F)F)cc(C)nc23)cc1OC | inconclusive: 14.1 µM [inhibitor, partial curve, poor fit] |  |
| CC1Cc2ccccc2N1S(=O)(=O)c1cccc(C(=O)NCc2ccccn2)c1 (configuration not stated) | inconclusive: 17.8 µM [inhibitor, single point] |  |
| O=[N+]([O-])c1cccc(S(=O)(=O)NC2CC3CCC2C3)c1 (configuration not stated) | inconclusive: 35.5 µM [inhibitor, single point] |  |
| CCc1cccc(NC(=O)c2cc3c(=O)[nH]c4ccccc4c3n2C)c1 |  | inactive: -10.2% |
| Cc1cc2c(=O)n(Cc3ccco3)c(SCC(=O)N3CCCc4ccccc43)nc2s1 | inconclusive: 11.2 µM [inhibitor, partial curve, poor fit] |  |
| Cn1nnnc1Sc1ncnc2scc(-c3cccc(Br)c3)c12 | inconclusive: 7.94 µM [inhibitor, partial curve, poor fit] |  |

| Structure (SMILES) | Potency | activity, negative = inhibition |
| --- | --- | --- |
| CC(=O)N1CCOc2ccc(S(=O)(=O)N3CCN(c4cc(C)ccc4C)CC3)cc21 | inconclusive: 35.5 µM [inhibitor, single point] |  |
| COc1ccc(-c2noc(N(C)CC(=O)Nc3cccc(C(F)(F)F)c3)n2)cc1 | inconclusive: 35.5 µM [inhibitor, single point] |  |
| Cc1ccc(NC(=O)c2cc(NC(=O)c3ccco3)ccc2N2CCCCC2)cc1 | inconclusive: 35.5 µM [inhibitor, single point] |  |
| Cc1ccc(C(=O)OCC(=O)Nc2cc(C(C)(C)C)no2)c(C)c1 | inconclusive: 22.4 µM [inhibitor, single point] |  |
| Cc1nn(C(C)C(=O)NCCC2=CCCCC2)c(=O)c2nn(-c3ccccc3)c(C)c12 (configuration not stated) | inconclusive: 11.2 µM [inhibitor, partial curve] |  |
| COC(=O)c1ccc(N=Cc2c(C(F)(F)F)[nH][nH]c2=O)cc1 |  | inactive: 3.35% |
| CCOc1ccc(NC(=O)CN(C)C(=O)c2ccc(=O)[nH]c2)cc1OCC |  | inactive: -4.36% |
| CCOC(=O)c1cc(-c2ccccc2)nc2c(O)cccc12 | inconclusive: 8.91 µM [inhibitor, partial curve] |  |
| c1ccc(COc2ccc(-c3csnn3)cc2)cc1 |  | inactive: 2.63% |
| CCC(C(=O)N1CCN(c2ccccn2)CC1)n1nc(C)n2c(cc3occc32)c1=O (configuration not stated) | inconclusive: 10 µM [inhibitor, single point] |  |
| COC(=O)c1ccc2nc(-c3ccc(C)cc3)c(CC3CCCCC3)n2c1 | inconclusive: 20 µM [inhibitor, partial curve, poor fit] |  |
| Cn1nc(-c2ccccc2F)c2cc(C(=O)NCc3ccc(Cl)cc3)sc21 | inconclusive: 22.4 µM [inhibitor, single point] |  |
| O=C(c1cccc(S(=O)(=O)NCc2ccc3c(c2)OCO3)c1)N1CCCC1 |  | inactive: 0.695% |
| CN(Cc1ccccc1)S(=O)(=O)c1ccc(Cl)c(C(=O)NCc2ccc3c(c2)OCO3)c1 | inconclusive: 22.4 µM [inhibitor, single point] |  |
| C=CC[C@@H](CC(=O)N(CCO)Cc1ccccc1)C(=O)N[C@H](COC(=O)[C@@H](CC=C)CC(=O)OC(C)(C)C)Cc1c[nH]c2ccccc12 | active: 12.6 µM |  |
| CC(=O)NC(c1ccccc1)c1cc([N+](=O)[O-])c2cccnc2c1O (configuration not stated) | inconclusive: 11.2 µM [inhibitor, partial curve, poor fit] |  |
| COc1ccccc1CNS(=O)(=O)c1ccc(-c2cc(C(F)(F)F)on2)s1 | inconclusive: 22.4 µM [inhibitor, single point] |  |
| Cc1sc2ncn(CC(=O)N3CCN(c4ccccn4)CC3)c(=O)c2c1S(=O)(=O)N1CCC(C)CC1 |  | inactive: 20.3% |
| Cc1cccc(-n2c(SCC(N)=O)nc3c(c2=O)C2(CCCC2)Cc2ccccc2-3)c1 | inconclusive: 22.4 µM [inhibitor, single point] |  |
| Cc1ccc(S(=O)(=O)N(Cc2ccccc2)Cc2ccco2)cc1 |  | inactive: 0.0868% |
| CCc1ccc(Nc2n[n+](-c3ccccc3)c(-c3c(Cl)cccc3Cl)s2)cc1 | active: 7.08 µM |  |

From PubChem BioAssay AID588855 (National Center for Advancing Translational Sciences (NCATS), 2011)
